# Test results reported in the RNAGym collection of RNA variant scans (doi:10.1093/nar/gkz1192).
# The source gives no read counts; variants with many changes may rest on few reads.
# B1: CPEB3 Ribozyme (parent)
# chain: UAACAGGGGGCCACAGCAGAAGCGUUCACGUCGCAGCCCCUGUCAGAUUCUGGUGAAUCUGCGAAUUCUGCUGUAUAUCUC
# Variants of: B1
# Experiment: self-cleavage, relative activity (ratio to wild type); higher = more cleavage; in vitro, sequencing
# In short: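 CPEB3 self-cleaving ribozyme mutant libraries were made by rounds of error-prone PCR, barcoded, and transcribed in vitro with T7 RNA polymerase for 5 hours at 37°C. Cleavage occurred during transcription and a 15 min DNase I step before EDTA stop. RNAs were reverse transcribed with template switching and Illumina-sequenced, with DNA sequencing mapping barcodes to variants. Relative activity is the variant's cleaved/total read fraction divided by wild type's (minimum 5 reads), averaged across three batches.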
row,Variant,self-cleavage
1,UAACAGGGGGCCACUGCAGAAGCGUUCACGUCACAGCCCCUGCCGGAUUCUGGUGAAUCUGCGAAUUCUGCUGUAUAUCUC,0.23
2,UAACAGGGGGCCACUGCAGAAGCGUUCACGUCUCAGCCCCUGUCAGAUUCAGGUGGAUCUGCCAAUUCUGCUGAAUAUCUC,0.08
3,UAACAGGGGGCCACUGCAGAAGCGUUCACGUCGCACCCCCUGUCAGACUCUGGUGAAUCUGCGAGUUCUGCUGUAUAUCUC,0.06
4,UAACAGGGGGCCACUGCAGAAGCGUUCACGUCGCAUCCCUUGUCCGAUUCUGGUGAAUCUGCGAGUUCUGCCGUAUAUCCC,0
5,UAACAGGGGGCCACUGCAGAAGCGUUCACGUCGCAGCCCCUAUCAGAUUCUGGUGAAUCUCCGAACUCUGCUGUAUAUCUC,0.12
6,UAACAGGGGGCCACUGCAGAAGCGUUCACGUCGCAGCCCCUAUCAGAUUCCGGUGAAGCUGCGAAUUCUGCUGUAUAUCUC,0.16
7,UAACAGGGGGCCACUGCAGAAGCGUUCACGUCGCAGCCCCUAUCAGAUUCUGGAGAAUCUGCGAAUUCCGCUGUAUAUCUC,0.2
8,UAACAGGGGGCCACUGCAGAAGCGUUCACGUCGCAGCCCCUGUCAUAUUCUGGAGAAUCUGCGAAUUCUGCUGUAUAUCUC,0.22
9,UAACAGGGGGCCACUGCAGAAGCGUUCACGUCGCAGCCCCUGUCAGAUUCUAGUGAAUCUGCGAAUUCUGCUGUAUAACUC,0.75
10,UAACAGGGGGCCACUGCAGAAGCGUUCACGUCGCAGCCCCUGUCAGAUUCUCGAGAAUCUGCGAAUUCUGCUGUAUAUCUC,0.32
11,UAACAGGGGGCCACUGCAGAAGCGUUCACGUCGCAGCCCCUGUCAGAUUCUUGUGAGUCUGCGAAUUCUGCAGUUUAUCUC,1.14
12,UAACAGGGGGCCACUGCAGAAGCGUUCACGUCGCAGCCCCUGUCAGAUUCUUGUGAAUCUGCGAAUUCUGCAGUAUAUCUC,1.07
13,UAACAGGGGGCCACUGCAGAAGCGUUCACGUCGCAGCCCCUGUCAGAUUCUGGUAAGUCUGCGAAUUCAGCUGUAUAUCUC,0.27
14,UAACAGGGGGCCACUGCAGAAGCGUUCACGUCGCAGCCCCUGUCAGAUUCUGGUUAAUCCGCGAAUUCUGCUGUAUAUCUC,0.14
15,UAACAGGGGGCCACUGCAGAAGCGUUCACGUCGCAGCCCCUGUCAGAUUCUGGUGAAUCUACGAGUUCUGCAGUAUAUCUC,0.13
16,UAACAGGGGGCCACUGCAGAAGCGUUCACGUCGCAGCCCCUGUCAGAUUCUGGUGAAUCUGCAAACUCUGCUGUAUAUCUC,0.14
17,UAACAGGGGGCCACUGCAGAAGCGUUCACGUCGCAGCCCCUGUCAGAUUCUGGUGAAUCUGCCAAUUCUGCCGUAUUUCUC,0.81
18,UAACAGGGGGCCACUGCAGAAGCGUUCACGUCGCAGCCCCUGUCAGAUUCUGGUGAAUCUGCGAAUUCUCCAGUAUAUCUC,0.06
19,UAACAGGGGGCCACUGCAGAAGCGAUCACGUCGCAGCCCCUGUCGGCCUCUGGUGAAUCUGCGAAUUCUGCUGUAUAUCUC,0.23
20,UAACAGGGGGCCACUGCAGAAGCGAUCACGUCGCAGCCCCUGUCAGAUUCUGGUGAAUCUGCGAAUUCUGCUGUGUAUCUC,0.13
21,UAACAGGGGGCCACUGCAGAAGCGAUCACGCCGCAGCCCCUGGCAGAUUCUGGUGAAUCUGCGAAUUCUGCUGUAUAACUC,0.29
22,UAACAGGGGGCCACUGCAGAAGCGAUCACGUCGCAGCCCCUGUCAGAUUCUGGUGAAUCUGCGAACCCUGCUGUAUAUCUC,0.13
23,UAACAGGGGGCCACUGCAGAAGCGCUCCCGCCGCAGCCCCUGUCAGAUUCUGGUGAAUCUGCGGAUUCUGCUGUAUAUCCC,0.07

row,Variant,self-cleavage
1,UAACAGGGGGCCACUGCAGAAGCGCUCUCGUCGCAGCCCCUGGCAGAUUCAGGUGAAUCUGCGAAUUCUGCUGUAUAUCUC,0.15
2,UAACAGGGGGCCACUGCAGAAGCGCUCACGUCGCUGCCCCUGUCAGUUUCUGGUGUAUCUGCGAAUUCUGCUGUAUAUCUC,0.17
3,UAACAGGGGGCCACUGCAGAAGCGCUCACGUCGCAGCCCCUGUCCGAUUCAGGUGAAUCUGCGAAUUCUGAUGUAUAUCUC,0.07
4,UAACAGGGGGCCACUGCAGAAGCGCUCACGUCGCAGCCCCUGUCAGAUUCUGGUGAAUCUGCGGAUUCUGCCGUAUAUCUC,0.2
5,UAACAGGGGGCCACUGCAGAAGCGCUCACGUCGCAGCCCCUGUCAGAUUCUGGUGAAUCUGCGAAUUCUGCUGUAUGUCUC,0.26
6,UAACAGGGGGCCACUGCAGAAGCGCUCACGUCGCAGCCUUUGUCAGAUUCUGGUGAAUCUGCGAAUUCCGCUGUAUGUCUC,0.02
7,UAACAGGGGGCCACUGCAGAAGCGCACACGUCGCAGCCCCUGGCAGAUUCUGGUGGAUCUGCGAAUUCUGCUGCAUAUCUC,0.18
8,UAACAGGGGGCCACUGCAGAAGCGCUCACGUCGCAGCCCCCGUCAGAUUCUGGCGAAUCUGCGAAUCCUGCUGUAUACCUC,0.04
9,UAACAGGGGGCCACUGCAGAAGCGCUCACGUCGCAGCCCCUGACAGAUUCUGGUGAAUCUGCGAAUUCUGCUGUAUAUCUC,0.16
10,UAACAGGGGGCCACUGCAGAAGCGCUCACGUCGCAGCCCCUGUCAGAUUCUGGUGAAUCAGCGAAUUCUGCCGUAUACCUC,0.08
11,UAACAGGGGGCCACUGCAGAAGCGCUCACGUCGCAGCCCCUGUCAGAUUCUGGUGAAUCCGCGAAUGCUGCUGUAUAUCUC,0.07
12,UAACAGGGGGCCACUGCAGAAGCGUACACGUCGCAGCCCCUGUCAGCUUCUGGUGCAUCUGCGAAUUCUGCUGUAUAUCUC,0.08
13,UAACAGGGGGCCACUGCAGAAGCGUACACGUCGGAGCCCCUGUCGGAUUCUGGUGAAUCUGCGGAUUCUGCUGUAUAUCUC,0.08
14,UAACAGGGGGCCACUGCAGAAGCGUACACGUCGGAGCCCCUGUCAGAUUCUGGUGAAUCUGCGAAUUCUGCUGUACAUCUC,0.11
15,UAACAGGGGGCCACUGCAGAAGCGUACACAUCGCAGCCCUUGUCAGAUUCUGGUGAACCCGCGAAUUCUGCUGUAUGUCUC,0.04
16,UAACAGGGGGCCACUGCAGAAGCGUACACGUCGCAGCCCCUGUCAGAUUCUGGUGAAUCUUCGAAUCCUGCUGAAUAUCUC,0.05
17,UAACAGGGGGCCACUGCAGAAGCGUACACGCCGCAGCCCCUGUCAGAUUCUGGUGAAUCUGCGAGUUCUGCUGUAUGUCUC,0.13
18,UAACAGGGGGCCACUGCAGAAGCGUACACGUCGCAGCCCCCGUCAGAUUCUGGUGAAUCUGCGAAUUCUGCUGUAUAUCUC,0.48
19,UAACAGGGGGCCACUGCAGAAGCGUACACGUCGCAGCCCCUGCCAGAUUCUGGUGAAUCUGCGAAUUCUGCUGUAUACCUC,0.14
20,UAACAGGGGGCCACUGCAGAAGCGUCCCCGUCGCAGCCCCUGCCAGAUACUGGUGAAUCUGCGAAUUCUGCUGUAUAUCUC,0.05
21,UAACAGGGGGCCACUGCAGAAGCGUCCACGUCGCUGCCCCUGGCAGAUUCUGGUGAAUCAGCGAAUUCUGCUGUAUAUCUC,0.05
22,UAACAGGGGGCCACUGCAGAAGCGUCCACGUAGCAGCCCCUGUCAGAUUCUGGUGAAACUGCGAAUUCUGCUGUAUAUCUC,0.12
23,UAACAGGGGGCCACUGCAGAAGCGUCCACGUGGCAGCCCCUGUCAGAUUCUGGUGGAUCUGCGAAUUCUGCUGUAUAUCUC,0.23

row,Variant,self-cleavage
1,UAACAGGGGGCCACUGCAGAAGCGUCCACGUUGCGGCCCCUGUCGGAUUCUGGUGAAUCUGCGUAUUCUGCUGUAUAUCUU,0.04
2,UAACAGGGGGCCACUGCAGAAGCGUCCACGUUGCGGCCCCUGCCAGAUUCUGGUGAAUCUGUGAAUUCUGCAGUAUAUCUC,0.15
3,UAACAGGGGGCCACUGCAGAAGCGUCCACGUCGCAGCCCAUGUCAGAUUCUGGUGAAUCUGCGAAUUCUGCUGUAUUCCUC,0.04
4,UAACAGGGGGCCACUGCAGAAGCGUCCACGUCGCAGCCCUUGUCAGAUUCUGGCGAAUCUGCGAGUUCUGCUGUAUGUCUC,0.16
5,UAACAGGGGGCCACUGCAGAAGCGUCCACGACGCAGCCCCUGUCAGAUUCUGGUGAAUCUGCGAAUUCUGCUGUAUAUCUC,0.26
6,UAACAGGGGGCCACUGCAGAAGCGUCCACGUCGCAGCCCCUGCCAGAUUCUGGCGAACCUGCGAAUUCUGCUGUUUACCUC,0.3
7,UAACAGGGGGCCACUGCAGAAGCGUCCACGUCGCAGCCCCUGUCAGAUUCUGGCGAAUCUGCGAAUUCUGCUGUAUAUCUC,0.23
8,UAACAGGGGGCCACUGCAGAAGCGUCCACGUCGCAGCCCCUGUCAGAUUCUGGCGAAUCAGCGAACUCUGCUGUAUAUCUC,0.1
9,UAACAGGGGGCCACUGCAGAAGCGUCCACGUCGCAGCCCCUGUCAGAUUCUGGUGAACCUGCGAAUUCUGCUGUAUAUCUC,0.21
10,UAACAGGGGGCCACUGCAGAAGCGUCCACGUCGCAGCCCCUGUCAGAUUCUGGUGAAUCUGCGAAUACUGCUGUAUAUCUC,0.24
11,UAACAGGGGGCCACUGCAGAAGCGUCCACGUCGCAGCCCCUGUCAGAUUCUGGUGAAUCUGCGAAUUCUGCUGUAUACCUC,0.37
12,UAACAGGGGGCCACUGCAGAAGCGUGCACGUCGCAGCCCUUGUCAGAUUCUGGUGAAUCUGCGAUUUCUGCUGUAUAUCUC,0.53
13,UAACAGGGGGCCACUGCAGAAGCGUGCACGUCGCAGCCCCUGUCAGAUGCGGGUGAAUCUGCGAAUUCAGCUGCAUAUCUC,0.08
14,UAACAGGGGGCCACUGCAGAAGCGUGCACGUCGCAGCCCCUGUCAGAUUCUGGUGAAUCUGCGAAUUCUGCAGUAUAUCUC,0.33
15,UAACAGGGGGCCACUGCAGAAGCGUUCACGACGCGGCCCCUGCCGGAUUCUGGUGAAUCUGCGAAUUCUGCUGUAUAUCUC,0.9
16,UAACAGGGGGCCACUGCAGAAGCGUUCACGACGCUGCCCCUACCUGAUUCUGGUGAAUCUGCGAAUUCUGCUGUAUAUCUC,0.1
17,UAACAGGGGGCCACUGCAGAAGCGUUCACGACGCAGCCUCUGUCAGAUUCUGGUGAAUCUGCGAAUUCUGCUGUAUAUCUC,0.18
18,UAACAGGGGGCCACUGCAGAAGCGUUCACGACGCAGCCCCUGCCAGAUUCUGGUGAAUCUGCGAAUUCUGCUGUAUAUCUC,0.32
19,UAACAGGGGGCCACUGCAGAAGCGUUCACGACGCAGCCCCUGGCAGAUUCUGGUGAAUCUGCGAACUCUGCUGUAUAUCUC,0.05
20,UAACAGGGGGCCACUGCAGAAGCGUUCACGACGCAGCCCCUGUCAGACUCUGGUGAAUCCGCGAAUUCCGCUGUAUAUCUC,0.1
21,UAACAGGGGGCCACUGCAGAAGCGUUCACGCCGCCGCCCCUGUCAGAUUCUGGUGAAUCUGCGAAUUCUGCUGUGUAUCUC,0.67
22,UAACAGGGGGCCACUGCAGAAGCGUUCACGCCGCGGCCCCUGCCAGAUUCUGGUGAAACUGCGAAUUCUGCUGUAUAUCUC,0.19
